From PubChem BioAssay AID463173 (ICCB-Longwood Screening Facility, Harvard Medical School, 2010)
Hit rate of the full screen: of about 52,000 compounds, about 1,700 (3.3%) were called active. Rule as the data show it: active = survival mostly below about 52% (no sharp cut-off); inactive = mostly above about 56%. The list shows a part of the results.

tested on: Wild type; experiment: growth inhibition of S. aureus wild type versus tarO mutant, primary screen, teichoic acid synthesis inhibitors, RN4220, OD600 (AID 463173); conditions: S. aureus RN4220 wild type/DeltatarO growth, OD600, 18 h, stronger effect = lower value; concentration not given here unless noted

SMILES	survival
CC(=O)N(C1=NCCCS1)c1ccc(C)cc1	inactive: 103%
CCCCCCc1cc(O)c2c(c1)OC(C)(C)C1=C2CCN(C)C1	inactive: 105%
Cc1ccc(Cn2cccc(C(=O)Nc3ccc4c(c3)OCO4)c2=O)cc1	inactive: 70%
COc1cccc(NC(=O)Cn2cc(C(=O)c3ccccc3)c3ccccc32)c1	inactive: 64%
O=C1NC(=O)N(Cc2ccccc2)C(=O)/C1=C/c1ccc2c(c1)OCO2	inactive: 77%
CCCOc1ccc(C2SCC(=O)Nc3c2c(C)nn3-c2cccc(C)c2)cc1OC (centres undefined)	inactive: 62%
CCN(CC)CCSc1nc2ccccc2c(=O)n1-c1ccc(Cl)cc1	inactive: 130%
CN1C(=O)C(=C/C=C/c2ccccc2)C(=O)N(C)C1=O	inactive: 113%
Cc1cccc(Cn2cccc(C(=O)Nc3ccc4c(c3)OCCO4)c2=O)c1	inactive: 90%
CCOc1ccc(CN(CCc2ccc3c(c2)OCO3)Cc2cccc(OC)c2)cc1	inactive: 42%
COC(=O)C1(O)c2ccccc2-c2ccccc21	inactive: 108%
CCN(CC)c1ccc(C=C(C#N)C#N)cc1	inactive: 107%
CN(C)S(=O)(=O)c1ccc(N2CCNCC2)cc1	inactive: 99%
COc1ccc(C)cc1NC(=O)N(Cc1ccc2c(c1)OCO2)C1CCN(Cc2ccccc2)CC1	inactive: 73%
CCOc1ccc(NC(=O)Cn2cc(C(=O)c3ccccc3)c3ccccc32)cc1	inactive: 72%
CC(C)C12CN3CC(C(C)C)(CN(C1)C3c1ccccn1)C2=O (centres undefined)	inactive: 85%
Cc1ccc(-n2c(/C=C\c3ccc(F)cc3)nc3ccccc3c2=O)cc1Cl	inactive: 72%
Cc1cccc(-c2nc(CN3C(=O)CN=C(c4ccccc4)c4ccccc43)c(C)o2)c1	active: 2%
Cn1c(=O)n(C)c2cc(CNCCc3ccc(F)cc3)ccc21	inactive: 86%
Cc1ccc(NC(=O)Cn2cc(C(=O)c3ccccc3)c3ccccc32)cc1	inactive: 114%
Cc1ccc(Cl)cc1NC(=O)N(Cc1ccc2c(c1)OCO2)C1CCN(Cc2ccccc2)CC1	active: 14%
N#CSC12CN3CN(CN(C3)C1)C2	inactive: 111%
Cc1ccc2nc(NC(=O)c3cccn(Cc4ccc(Cl)cc4)c3=O)sc2c1	inactive: 84%
COC(=O)Cn1cc(C=C2C(=O)N(C)C(=O)N(C)C2=O)c2ccccc21	inactive: 103%
CC(c1ccccc1F)n1cc(C(=O)Nc2ccc3nc[nH]c3c2)nn1 (centres undefined)	inactive: 108%

SMILES	survival
Cc1ccc(-n2c(/C=C/c3ccc(Br)s3)nc3ccccc3c2=O)cc1	inactive: 58%
O=C1CC(=O)N(C2CCCCC2)C(=O)N1	inactive: 100%
O=c1c2ccccc2nc(/C=C/c2cccc3ccccc23)n1-c1ccccc1Cl	inactive: 70%
COc1ccc(Cl)cc1NC(=O)CN1C(=O)CN=C(c2ccccc2)c2cc(Cl)ccc21	inactive: 73%
O=C1NC(=O)N(Cc2ccco2)C(=O)/C1=C\c1ccco1	inactive: 111%
Cc1cccc(-n2c(/C=C/c3ccccc3O)nc3ccccc3c2=O)c1	inactive: 12%
CCOc1ccc(N(C(C)=O)C2=NCCCS2)cc1	inactive: 94%
CCc1ccc(NC(=O)c2cccn(Cc3cccc([N+](=O)[O-])c3)c2=O)cc1	inactive: 82%
CNC(=O)Oc1c(Cl)cc(Cl)cc1Cl	inactive: 105%
CCCCc1ccc(NC(=O)c2cccn(Cc3ccc(Cl)cc3)c2=O)cc1	inactive: 79%
Cc1c(C(c2ccc(Cl)cc2Cl)c2c(O)c3ccccc3oc2=O)c(=O)n(-c2ccccc2)n1C (centres undefined)	inactive: 60%
O=c1c2ccccc2nc(/C=C\c2ccccc2F)n1-c1ccc(O)cc1	inactive: 73%
COc1ccc(Br)cc1CN1CCN(C(=O)Cc2ccccc2)CC1	inactive: 109%
Cc1ccc(-n2c(/C=C/c3cc(Br)cs3)nc3ccccc3c2=O)cc1	inactive: 64%
Cc1ccccc1CN1C(=O)CN=C(c2ccccc2)c2cc(Cl)ccc21	inactive: 90%
COc1ccc(C(=O)Nc2ccc(Cl)cc2C(=O)c2ccccc2)c(OC)c1	active: -2%
Cc1ccc(OCC(=O)N2CCN(CCc3ccncc3)CC2)cc1C	inactive: 89%
CC1CCC(NCCc2ccc3c(c2)OCO3)CC1 (centres undefined)	inactive: 103%
CCOc1cccc(C(O)CNC)c1 (centres undefined)	inactive: 99%
Cc1cc(-n2c(/C=C/c3cccs3)nc3ccccc3c2=O)ccc1Br	inactive: 126%
Cc1cc(-n2c(/C=C/c3ccc(Br)s3)nc3ccccc3c2=O)ccc1Br	inactive: 66%
COc1ccc(/C=C/c2nc3ccccc3c(=O)n2-c2ccc(C)cc2)cc1O	inactive: 94%
Nc1ccc(NC2=NCCCS2)cc1	inactive: 93%
O=C(Nc1ccon1)c1cccn(Cc2ccccc2)c1=O	inactive: 71%
